Source: the antibiotic and cytotoxicity screens of Wong et al. (2023)
The list shows a part of the results.

The compounds below were run on S. aureus RN4220 (assay: growth inhibition call (relative growth <= 0.2)). Settings: 50 µM.

Growth inhibition call, inactive:
C[C@@H]1CCCCO[C@H](CN(C)C(=O)c2ccncc2)[C@@H](C)CN([C@@H](C)CO)C(=O)c2cc(NC(=O)NC3CCCCC3)ccc2O1
O=c1cc[nH]cc1
C[C@@H]1CN([C@@H](C)CO)C(=O)c2cc(C3=CCCCC3)cnc2O[C@H]1CN(C)C(=O)CN1CCOCC1
O=C(C1=C[C@@H](c2ccc(C(F)(F)F)cc2)C[C@@H](OCc2ccc(CO)cc2)O1)N1CCCCCCC1
CCN(CC)CCNC(=O)COc1ccc(OC)cc1.Cl
CCCCOC(=O)CSc1n[nH]c(=O)[nH]c1=O
COc1ccc(cc1)S(=O)(=O)N1CC[C@]2(CC1)CN([C@H](CO)c1c2c2ccc(cc2n1C)OC)C(=O)CN(C)C
C[C@@H]1CN([C@H](C)CO)C(=O)Cc2cc(NC(=O)CCCN(C)C)ccc2O[C@@H]1CN(C)S(=O)(=O)c1cccs1
NC[C@@H](O)CC(=O)O
COc1ccc(NC(=O)N(C)C[C@@H]2Oc3ccc(NC(=O)C4CC4)cc3CC(=O)N([C@@H](C)CO)C[C@@H]2C)cc1
Cc1noc(C)c1NC(=O)N(C)C[C@@H]1Oc2c(NC(=O)c3cnccn3)cccc2C(=O)N([C@@H](C)CO)C[C@H]1C
